Structures can show the parent of a compound that is named as a salt. The list shows a part of the results. The data scatter; read single values as rough.
These compounds were tested on SUM159 (assay: ALDHbr (CSC) cell proportion score relative to DMSO vehicle (ratio to DMSO); breast (SUM159) / gastric (MKN45) / pancreatic (PANC1) / colon cancer lines; ALDHbr cells have high ALDH activity and are rich in cancer stem cells (CSC); higher = more CSC (ALDHbr) cells remaining). Settings: 10 µM; 72 h.
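Also: High-content imaging of ALDEFLUOR-stained cells with Hoechst-labelled nuclei in 384-well plates, triplicate wells, scored as Z-score against 0.1% DMSO vehicle, negative meaning fewer ALDHbr cells.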

SMILES | ALDHbr
O=C(O)CN(CCN(CC(=O)O)CC(=O)O)CCN(CC(=O)O)CC(=O)O [Pentetic acid] | 1.05
Cc1cc(CC(=O)O)n(C)c1C(=O)c1ccc(Cl)cc1 [Zomepirac sodium salt] | 1.06
CCN[C@H]1C[C@H](C)S(=O)(=O)c2sc(S(N)(=O)=O)cc21 [Dorzolamide hydrochloride] | 0.938
CCCOc1cc(N)ccc1C(=O)OCCN(CC)CC [Propoxycaine hydrochloride] | 0.987
COc1ccc(CC(C)NCC(O)c2ccc(O)c(NC=O)c2)cc1 (stereo not given) [Formoterol fumarate] | 1.65
OC(c1cc(C(F)(F)F)nc2c(C(F)(F)F)cccc12)C1CCCCN1 (stereo not given) [Mefloquine hydrochloride] | 2.07
CC(CCc1ccc(O)cc1)NCCc1ccc(O)c(O)c1 (stereo not given) [Dobutamine hydrochloride] | 2.01
Cc1ccccc1C(OCCN(C)C)c1ccccc1 (stereo not given) [Orphenadrine hydrochloride] | 0.812
CN(CCCN1c2ccccc2CCc2ccccc21)CC(=O)c1ccc(Cl)cc1 [Lofepramine] | 0.664
COC(=O)C1=C(C)NC(C)=C(C(=O)OCC(C)C)C1c1ccccc1[N+](=O)[O-] (stereo not given) [Nisoldipine] | 0.754
CC(C)[C@H]1CC[C@H](C(=O)N[C@H](Cc2ccccc2)C(=O)O)CC1 [Nateglinide] | 0.776
Nc1ncn(C2OC(CO)C(O)C2O)c(=O)n1 (stereo not given) [Azacytidine-5] | 0.61
CCCCc1oc2ccccc2c1C(=O)c1cc(I)c(OCCN(CC)CC)c(I)c1 [Amiodarone hydrochloride] | 0.38
CC(=O)Oc1cc(C(C)C)c(OCCN(C)C)cc1C [Moxisylyte hydrochoride] | 0.934
O=C(OCCOCCO)c1ccccc1Nc1cccc(C(F)(F)F)c1 [Etofenamate] | 1.1
COCCCOc1cc(C[C@@H](C[C@H](N)[C@@H](O)C[C@H](C(=O)NCC(C)(C)C(N)=O)C(C)C)C(C)C)ccc1OC [Aliskiren hemifumarate] | 0.945
CC1(C)O[C@@H]2C[C@H]3[C@@H]4C[C@H](F)C5=CC(=O)C=C[C@]5(C)[C@H]4[C@@H](O)C[C@]3(C)[C@]2(C(=O)CO)O1 [Flunisolide] | 1.39
CN1CCN(CCCN2c3ccccc3Sc3ccc(C(F)(F)F)cc32)CC1 [Trifluoperazine dihydrochloride] | 0.506

SMILES | ALDHbr
Nc1ccc(S(=O)(=O)Nc2ncccn2)cc1 [Sulfadiazine] | 1.15
CCCCOc1cc(C(=O)OCCN(CC)CC)ccc1N [Benoxinate hydrochloride] | 1.22
CCCCNc1cc(C(=O)O)cc(S(N)(=O)=O)c1Oc1ccccc1 [Bumetanide] | 1.03
O=P(O)(O)C(O)(Cc1cccnc1)P(=O)(O)O [Risedronic acid monohydrate] | 0.975
CCOC(=O)C1=C(C)NC(C)=C(C(=O)OCC)C1c1ccccc1/C=C/C(=O)OC(C)(C)C [Lacidipine] | 1.08
CC(CN(C)C)CN1c2ccccc2CCc2ccccc21 (stereo not given) [Trimipramine maleate salt] | 0.973
Cc1cccc(C)c1NC(=O)C1CCCCN1C (stereo not given) [Mepivacaine hydrochloride] | 1.09
Cc1[nH]c(=O)c(C#N)cc1-c1ccncc1 [Milrinone] | 1
O=C(CCCN1CCC(O)(c2ccc(Cl)cc2)CC1)c1ccc(F)cc1 [Haloperidol] | 0.799
CCc1nn(CCCN2CCN(c3cccc(Cl)c3)CC2)c(=O)n1CCOc1ccccc1 [Nefazodone hydrochloride] | 1.29
CCN(CC)C(=O)N1CCN(C)CC1 [Diethylcarbamazine citrate] | 1.02
CCCC1O[C@@H]2C[C@H]3[C@@H]4CCC5=CC(=O)C=C[C@]5(C)[C@H]4[C@@H](O)C[C@]3(C)[C@]2(C(=O)CO)O1 (stereo not given in full) [Budesonide] | 0.949
CCC[C@H](N[C@@H](C)C(=O)N1[C@H](C(=O)O)C[C@@H]2CCCC[C@@H]21)C(=O)OCC [Perindopril] | 1.08
CN(C)CCOC(c1ccccc1)c1ccccc1 [Diphenhydramine hydrochloride] | 0.927
CCOC(=O)OC(C)OC1=C(C(=O)Nc2ccccn2)N(C)S(=O)(=O)c2ccccc21 (stereo not given) [Ampiroxicam] | 0.87
C#CCN[C@@H]1CCc2ccccc21 [Rasagiline] | 0.779
CC(C)[N+](C)(CCOC(=O)C1c2ccccc2Oc2ccccc21)C(C)C [Propantheline bromide] | 1.12

From the supplement of paper PMC11880418
